Reference: PMC12511354
These are yes or no findings as the source states them, for the method shown. Binding seen in cells or lysates may run through a third protein. Some binding calls cover weakened binding; strength is not graded here.

The chains behind the UniProt entries cited, without tags or fusion partners.
UniProt Q3TKT4: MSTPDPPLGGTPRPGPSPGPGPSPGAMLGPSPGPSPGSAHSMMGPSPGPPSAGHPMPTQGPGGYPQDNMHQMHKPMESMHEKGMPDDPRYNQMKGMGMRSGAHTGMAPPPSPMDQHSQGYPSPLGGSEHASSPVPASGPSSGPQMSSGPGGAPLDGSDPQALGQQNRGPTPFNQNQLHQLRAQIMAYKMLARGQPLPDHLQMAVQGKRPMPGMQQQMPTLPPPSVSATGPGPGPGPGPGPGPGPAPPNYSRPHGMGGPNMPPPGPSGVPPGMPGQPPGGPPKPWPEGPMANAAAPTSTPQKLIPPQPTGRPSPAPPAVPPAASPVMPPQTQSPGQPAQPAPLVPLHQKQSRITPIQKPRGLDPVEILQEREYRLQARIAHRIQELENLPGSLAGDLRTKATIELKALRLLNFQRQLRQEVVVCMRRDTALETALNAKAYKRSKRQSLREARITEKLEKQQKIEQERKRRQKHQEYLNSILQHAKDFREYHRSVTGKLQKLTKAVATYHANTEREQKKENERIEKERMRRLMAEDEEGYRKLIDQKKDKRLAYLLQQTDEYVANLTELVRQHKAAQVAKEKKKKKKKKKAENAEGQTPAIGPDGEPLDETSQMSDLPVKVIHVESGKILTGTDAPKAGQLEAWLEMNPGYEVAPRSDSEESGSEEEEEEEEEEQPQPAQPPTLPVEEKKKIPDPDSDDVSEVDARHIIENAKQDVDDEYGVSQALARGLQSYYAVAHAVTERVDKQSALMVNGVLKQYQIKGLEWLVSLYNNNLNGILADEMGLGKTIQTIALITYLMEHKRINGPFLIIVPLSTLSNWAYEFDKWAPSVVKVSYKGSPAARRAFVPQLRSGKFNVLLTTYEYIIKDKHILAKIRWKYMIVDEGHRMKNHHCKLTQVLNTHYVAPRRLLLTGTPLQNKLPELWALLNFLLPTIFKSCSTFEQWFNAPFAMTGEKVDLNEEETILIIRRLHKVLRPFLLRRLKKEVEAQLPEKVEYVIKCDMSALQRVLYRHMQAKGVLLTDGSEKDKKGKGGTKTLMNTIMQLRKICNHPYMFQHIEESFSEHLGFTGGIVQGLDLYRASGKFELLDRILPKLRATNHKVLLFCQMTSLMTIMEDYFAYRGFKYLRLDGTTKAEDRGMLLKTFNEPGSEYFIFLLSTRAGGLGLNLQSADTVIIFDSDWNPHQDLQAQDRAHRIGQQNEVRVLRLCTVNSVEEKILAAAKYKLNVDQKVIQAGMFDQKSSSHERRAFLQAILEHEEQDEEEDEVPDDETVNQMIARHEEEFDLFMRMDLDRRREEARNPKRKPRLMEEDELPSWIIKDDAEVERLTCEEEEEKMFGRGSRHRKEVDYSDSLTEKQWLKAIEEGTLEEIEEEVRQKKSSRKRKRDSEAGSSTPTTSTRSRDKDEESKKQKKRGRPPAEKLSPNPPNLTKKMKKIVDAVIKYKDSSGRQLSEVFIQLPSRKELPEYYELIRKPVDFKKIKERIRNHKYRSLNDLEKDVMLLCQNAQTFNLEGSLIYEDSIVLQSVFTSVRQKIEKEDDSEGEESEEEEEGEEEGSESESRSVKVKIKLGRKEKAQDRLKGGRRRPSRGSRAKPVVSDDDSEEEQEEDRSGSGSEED
UniProt Q8BSQ9: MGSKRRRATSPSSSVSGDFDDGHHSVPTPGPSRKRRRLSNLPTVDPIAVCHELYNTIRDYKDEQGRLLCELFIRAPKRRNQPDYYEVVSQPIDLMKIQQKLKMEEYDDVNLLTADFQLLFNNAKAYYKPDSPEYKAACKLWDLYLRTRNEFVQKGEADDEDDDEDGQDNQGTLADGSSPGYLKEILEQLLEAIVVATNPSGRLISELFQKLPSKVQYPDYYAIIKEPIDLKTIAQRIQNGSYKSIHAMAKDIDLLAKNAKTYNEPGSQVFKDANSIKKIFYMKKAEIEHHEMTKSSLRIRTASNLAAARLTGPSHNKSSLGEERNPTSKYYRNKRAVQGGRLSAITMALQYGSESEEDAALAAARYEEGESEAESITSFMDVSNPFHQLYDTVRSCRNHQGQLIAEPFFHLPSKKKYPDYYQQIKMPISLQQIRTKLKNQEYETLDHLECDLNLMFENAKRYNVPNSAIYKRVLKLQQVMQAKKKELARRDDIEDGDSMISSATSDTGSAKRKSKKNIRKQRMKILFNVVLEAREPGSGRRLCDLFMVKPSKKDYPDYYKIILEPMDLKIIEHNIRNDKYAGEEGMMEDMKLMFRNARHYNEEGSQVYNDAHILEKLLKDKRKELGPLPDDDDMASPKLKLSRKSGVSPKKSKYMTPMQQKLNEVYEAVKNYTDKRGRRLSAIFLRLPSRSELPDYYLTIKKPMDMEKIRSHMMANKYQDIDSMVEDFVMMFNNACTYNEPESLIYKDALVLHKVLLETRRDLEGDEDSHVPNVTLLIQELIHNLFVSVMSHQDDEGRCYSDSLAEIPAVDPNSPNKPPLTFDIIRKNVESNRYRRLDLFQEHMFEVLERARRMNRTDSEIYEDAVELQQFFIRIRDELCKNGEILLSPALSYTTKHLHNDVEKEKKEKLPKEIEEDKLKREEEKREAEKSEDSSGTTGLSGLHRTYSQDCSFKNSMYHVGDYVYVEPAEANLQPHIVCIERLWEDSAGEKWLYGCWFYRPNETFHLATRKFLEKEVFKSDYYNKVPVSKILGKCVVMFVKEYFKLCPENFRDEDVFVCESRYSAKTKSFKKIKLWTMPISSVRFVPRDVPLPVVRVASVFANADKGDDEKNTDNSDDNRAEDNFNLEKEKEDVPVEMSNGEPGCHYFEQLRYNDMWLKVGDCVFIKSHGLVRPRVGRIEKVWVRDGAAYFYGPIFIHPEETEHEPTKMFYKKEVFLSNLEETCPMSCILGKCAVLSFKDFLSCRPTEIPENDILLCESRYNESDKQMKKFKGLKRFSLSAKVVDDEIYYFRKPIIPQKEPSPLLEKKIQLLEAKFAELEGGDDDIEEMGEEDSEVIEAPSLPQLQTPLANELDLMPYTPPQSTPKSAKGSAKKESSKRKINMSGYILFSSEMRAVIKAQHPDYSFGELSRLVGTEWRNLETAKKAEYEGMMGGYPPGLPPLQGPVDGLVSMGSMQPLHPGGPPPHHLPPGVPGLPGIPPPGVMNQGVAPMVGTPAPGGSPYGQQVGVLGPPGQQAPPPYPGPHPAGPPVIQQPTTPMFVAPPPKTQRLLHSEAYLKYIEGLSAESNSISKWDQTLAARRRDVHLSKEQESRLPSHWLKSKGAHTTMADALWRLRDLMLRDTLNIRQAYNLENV
UniProt E9Q4N7: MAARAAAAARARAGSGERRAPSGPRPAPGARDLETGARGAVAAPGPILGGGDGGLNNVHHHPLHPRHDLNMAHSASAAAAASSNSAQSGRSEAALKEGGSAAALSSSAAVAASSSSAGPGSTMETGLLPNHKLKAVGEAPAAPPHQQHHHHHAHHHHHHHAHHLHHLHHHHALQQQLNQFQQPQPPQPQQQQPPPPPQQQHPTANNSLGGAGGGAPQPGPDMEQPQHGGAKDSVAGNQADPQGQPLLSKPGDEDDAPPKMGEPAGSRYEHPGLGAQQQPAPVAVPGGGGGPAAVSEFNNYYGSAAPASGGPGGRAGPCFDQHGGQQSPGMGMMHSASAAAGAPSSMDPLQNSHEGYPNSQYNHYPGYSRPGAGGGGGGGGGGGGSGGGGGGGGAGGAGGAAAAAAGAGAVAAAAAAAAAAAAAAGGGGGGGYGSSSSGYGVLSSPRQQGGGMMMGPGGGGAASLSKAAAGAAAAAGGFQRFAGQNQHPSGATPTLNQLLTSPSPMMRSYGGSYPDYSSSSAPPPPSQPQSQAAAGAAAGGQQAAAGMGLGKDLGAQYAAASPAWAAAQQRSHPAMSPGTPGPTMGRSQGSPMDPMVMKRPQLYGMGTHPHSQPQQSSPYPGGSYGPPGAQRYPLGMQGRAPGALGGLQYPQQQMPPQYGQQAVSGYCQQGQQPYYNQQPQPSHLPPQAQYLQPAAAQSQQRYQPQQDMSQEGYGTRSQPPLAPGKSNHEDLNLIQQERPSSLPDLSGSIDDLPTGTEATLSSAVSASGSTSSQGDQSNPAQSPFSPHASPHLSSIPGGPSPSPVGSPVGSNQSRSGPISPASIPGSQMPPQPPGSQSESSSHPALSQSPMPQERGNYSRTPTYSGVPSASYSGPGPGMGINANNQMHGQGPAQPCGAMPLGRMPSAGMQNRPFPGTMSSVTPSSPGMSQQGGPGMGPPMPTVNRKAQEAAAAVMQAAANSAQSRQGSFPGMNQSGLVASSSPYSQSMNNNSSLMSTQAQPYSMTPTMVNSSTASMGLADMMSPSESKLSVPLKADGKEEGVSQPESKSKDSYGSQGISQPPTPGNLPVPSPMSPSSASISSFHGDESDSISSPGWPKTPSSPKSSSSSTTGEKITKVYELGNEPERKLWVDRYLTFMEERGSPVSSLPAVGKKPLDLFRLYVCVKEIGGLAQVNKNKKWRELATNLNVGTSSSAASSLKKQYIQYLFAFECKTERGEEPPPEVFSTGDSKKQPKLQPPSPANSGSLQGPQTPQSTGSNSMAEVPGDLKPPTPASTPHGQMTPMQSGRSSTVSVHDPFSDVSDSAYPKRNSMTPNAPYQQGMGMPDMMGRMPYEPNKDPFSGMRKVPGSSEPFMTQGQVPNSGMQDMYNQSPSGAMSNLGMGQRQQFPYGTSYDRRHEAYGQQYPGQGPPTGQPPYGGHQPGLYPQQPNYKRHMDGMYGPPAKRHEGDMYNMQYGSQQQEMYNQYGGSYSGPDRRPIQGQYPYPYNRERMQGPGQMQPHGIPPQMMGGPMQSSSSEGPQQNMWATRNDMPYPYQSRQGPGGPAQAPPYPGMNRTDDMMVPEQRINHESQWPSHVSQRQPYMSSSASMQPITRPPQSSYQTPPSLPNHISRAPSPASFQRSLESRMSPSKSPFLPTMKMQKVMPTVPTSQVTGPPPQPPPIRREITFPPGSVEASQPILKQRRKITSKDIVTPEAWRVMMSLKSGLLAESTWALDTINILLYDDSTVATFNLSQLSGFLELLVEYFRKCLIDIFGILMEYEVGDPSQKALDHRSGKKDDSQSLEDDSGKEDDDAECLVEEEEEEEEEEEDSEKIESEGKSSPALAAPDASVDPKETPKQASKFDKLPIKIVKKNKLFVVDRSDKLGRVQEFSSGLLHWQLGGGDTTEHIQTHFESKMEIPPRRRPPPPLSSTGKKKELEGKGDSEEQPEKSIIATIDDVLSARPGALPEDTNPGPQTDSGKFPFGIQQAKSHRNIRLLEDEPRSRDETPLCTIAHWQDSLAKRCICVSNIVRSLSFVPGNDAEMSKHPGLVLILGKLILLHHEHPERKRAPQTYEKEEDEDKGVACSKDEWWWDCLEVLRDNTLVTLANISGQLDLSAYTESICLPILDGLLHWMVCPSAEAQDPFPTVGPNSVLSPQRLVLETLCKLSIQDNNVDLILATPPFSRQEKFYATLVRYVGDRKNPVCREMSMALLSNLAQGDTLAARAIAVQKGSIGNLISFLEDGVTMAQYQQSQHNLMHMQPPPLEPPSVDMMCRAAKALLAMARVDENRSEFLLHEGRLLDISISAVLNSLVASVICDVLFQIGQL
UniProt Q9WTL8: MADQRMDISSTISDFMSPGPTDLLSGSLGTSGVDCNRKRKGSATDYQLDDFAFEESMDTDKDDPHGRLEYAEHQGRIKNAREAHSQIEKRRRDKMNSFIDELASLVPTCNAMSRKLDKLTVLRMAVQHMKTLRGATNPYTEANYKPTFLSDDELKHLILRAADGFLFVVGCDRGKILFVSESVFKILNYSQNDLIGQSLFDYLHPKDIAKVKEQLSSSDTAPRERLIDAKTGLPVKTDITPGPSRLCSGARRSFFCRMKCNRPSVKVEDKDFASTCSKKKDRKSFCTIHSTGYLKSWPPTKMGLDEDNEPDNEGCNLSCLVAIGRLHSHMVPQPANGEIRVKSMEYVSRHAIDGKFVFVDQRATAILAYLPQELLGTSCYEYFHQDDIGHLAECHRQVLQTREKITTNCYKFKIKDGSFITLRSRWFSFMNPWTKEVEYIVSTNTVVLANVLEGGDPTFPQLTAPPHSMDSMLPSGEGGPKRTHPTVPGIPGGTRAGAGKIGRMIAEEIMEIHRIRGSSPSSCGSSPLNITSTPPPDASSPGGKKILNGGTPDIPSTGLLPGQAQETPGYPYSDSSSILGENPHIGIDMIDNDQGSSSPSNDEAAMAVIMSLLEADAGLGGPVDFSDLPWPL

Key:
[1] = target: BRM (mouse (endogenous in liver)) (UniProt Q6DIC0); test: co-IP; native BRM IP from MNase-digested liver nuclear extract of FH-H3.3A mice at CT8 and CT20 and of FH-H3.3A;PerKO mice; IgG as negative control; immunoblots
[2] = target: BRG1 (mouse (endogenous in liver)) (UniProt Q3TKT4); test: co-IP; native BRG1 IP from MNase-digested liver nuclear extract of FH-H3.3A mice at CT8 and CT20; IgG as negative control; immunoblots
[3] = target: PBRM1 (mouse (endogenous in liver)) (UniProt Q8BSQ9); test: co-IP; native PBRM1 IP from MNase-digested liver nuclear extract of wild-type (CT0-CT20) or FH-H3.3A (CT8, CT20) mice; isotype-matched IgG as negative control; immunoblots
[4] = target: BRG1 (mouse (endogenous in liver)) (UniProt Q3TKT4); test: co-IP; native BRG1 IP from MNase-digested liver nuclear extract of FH-H3.3A;PerKO mice; immunoblots
[5] = target: PBRM1 (mouse (endogenous in liver)) (UniProt Q8BSQ9); test: co-IP; native PBRM1 IP from MNase-digested liver nuclear extract of FH-H3.3A;PerKO mice; immunoblots
[6] = target: PBRM1 (mouse (endogenous in liver)) (UniProt Q8BSQ9); test: co-IP; native PBRM1 IP from MNase-digested liver nuclear extract, livers collected at night (CT20); immunoblots

| binding [1] | binding [2] | binding [3] | binding [4] | binding [6] | Substance | binding [5] |
| --- | --- | --- | --- | --- | --- | --- |
| binds | binds | – | – | – | ARID1B (from UniProt E9Q4N7 1-2306) | – |
| – | – | binds | – | – | ARID2 (from UniProt E9Q7E2 1-1828) | – |
| binds | binds | binds | binds weakly | no binding (condition: at night (CT20)) | BMAL1 (from UniProt Q9WTL8 1-632) | no binding (condition: in Per1-/-;Per2-/- (PerKO) livers) |
| – | – | binds | – | – | BRG1 (from UniProt Q3TKT4 1-1613) | – |
